Laboratory results from US11178870B2 (priority 2017, dated 2021).

Assays:
Type in all cases: in vivo
Alternaia brassicicola = test: Test Example C: Alternaria sooty spot on cabbage; details: for Test C control value: Alternaria sooty spot on cabbage; for Test C control value (Alternaria sooty spot on cabbage): class of control value, Table 7; for control value, Test C (Alternaria sooty spot on cabbage): Table 7, Test C
Botrytis cinerea = test: Test Example B: Gray mold on tomato; details: for Test B control value: Gray mold on tomato; for Test B control value (gray mold on tomato): class of control value, Table 7; for control value, Test B (gray mold on tomato): Table 7, Test B
Plasmopara viticola = test: Test Example G: Downy mildew on vine; details: for Test G control value: Downy mildew on vine, 250 ppm sprayed, 7 to 10 days after inoculation; for Test G control value / Test G control value (downy mildew on vine): 2.5 ml/pot; for Test G control value (downy mildew on vine): 250 ppm spray, investigated 7 to 10 days after inoculation; for control value, Test G (downy mildew on vine): 250 ppm sprayed (2.5 ml/pot) before inoculation, assessed 7 to 10 days after inoculation
Puccinia recondita = test: Test Example E: Brown rust on wheat; details: for Test E control value: Brown rust on wheat; for Test E control value (brown rust on wheat): class of control value, Table 7; for control value, Test E (brown rust on wheat): Table 7, Test E
[1] = tested on: Blumeria graminis f. sp. hordei; test: Test Example D: Powdery mildew on barley; details: for Test D control value: Powdery mildew on barley; for Test D control value (powdery mildew on barley): class of control value, Table 7; for control value, Test D (powdery mildew on barley): Table 7, Test D

SMILES	Test C control value (Alternaia brassicicola)	Test B control value (Botrytis cinerea)	Test G control value (Plasmopara viticola)	Test E control value (Puccinia recondita)	Test D control value [1]	Test C control value (Alternaria sooty spot on cabbage) (Alternaia brassicicola)	Test B control value (gray mold on tomato) (Botrytis cinerea)	Test G control value (downy mildew on vine) (Plasmopara viticola)	Test E control value (brown rust on wheat) (Puccinia recondita)	Test D control value (powdery mildew on barley) [1]	further results
CCn1c(-c2c(F)cc(F)cc2F)c(-n2cc(I)cn2)cc(Cl)c1=O [Compound 160]	H (H shows the control value more than 50%)	H (H shows the control value more than 50%)	L (L shows the control value of 50% or less)	L (L shows the control value of 50% or less)	L (L shows the control value of 50% or less)						
Cc1cnn(-c2cc(Br)c(=O)n(N(C)C)c2-c2ccc(F)cc2Cl)c1Cl [Compound 479]						H (H shows the control value more than 50%)	H (H shows the control value more than 50%)	H (H shows the control value more than 50%)	H (H shows the control value more than 50%)	H (H shows the control value more than 50%)	
Cn1c(-c2ccc(F)cc2F)c(-n2cc(F)cn2)cc(Cl)c1=O [Compound 464]						H (H shows the control value more than 50%)	H (H shows the control value more than 50%)	L (L shows the control value of 50% or less)	H (H shows the control value more than 50%)	L (L shows the control value of 50% or less)	
O=c1c(Cl)cc(-c2cccnc2Cl)c(-c2c(F)cccc2F)n1CC(F)F [Compound 57]	H (H shows the control value more than 50%)	H (H shows the control value more than 50%)	L (L shows the control value of 50% or less)	H (H shows the control value more than 50%)	H (H shows the control value more than 50%)						
CCN1C(=O)CCC(c2ccsc2)=C1c1c(F)cccc1F [Compound 4]	L (L shows the control value of 50% or less)	L (L shows the control value of 50% or less)	H (H shows the control value more than 50%)	H (H shows the control value more than 50%)	H (H shows the control value more than 50%)						
Cc1cnn(-c2cc(Cl)c(=O)n(CC(F)F)c2-c2ccc(F)cc2F)c1Cl [Compound 255]											control value, Test C (Alternaria sooty spot on cabbage) (Alternaia brassicicola): H (H shows the control value more than 50%); control value, Test B (gray mold on tomato) (Botrytis cinerea): H (H shows the control value more than 50%); control value, Test G (downy mildew on vine) (Plasmopara viticola): H (H shows the control value more than 50%); control value, Test E (brown rust on wheat) (Puccinia recondita): H (H shows the control value more than 50%); control value, Test D (powdery mildew on barley) [1]: H (H shows the control value more than 50%)
O=c1c(Br)cc(-c2cccnc2Cl)c(-c2c(F)cccc2F)n1CC(F)F [Compound 59]	H (H shows the control value more than 50%)	H (H shows the control value more than 50%)	L (L shows the control value of 50% or less)	H (H shows the control value more than 50%)	H (H shows the control value more than 50%)						
CCn1c(-c2ccccc2OC)c(-n2cc(C)cn2)cc(Br)c1=O [Compound 247]											control value, Test C (Alternaria sooty spot on cabbage) (Alternaia brassicicola): L (L shows the control value of 50% or less); control value, Test B (gray mold on tomato) (Botrytis cinerea): H (H shows the control value more than 50%); control value, Test G (downy mildew on vine) (Plasmopara viticola): L (L shows the control value of 50% or less); control value, Test E (brown rust on wheat) (Puccinia recondita): L (L shows the control value of 50% or less); control value, Test D (powdery mildew on barley) [1]: L (L shows the control value of 50% or less)
CCn1c(-c2ccc(F)cc2Cl)c(-n2ncc(C)c2Cl)cc(Br)c1=O [Compound 337]											control value, Test C (Alternaria sooty spot on cabbage) (Alternaia brassicicola): H (H shows the control value more than 50%); control value, Test B (gray mold on tomato) (Botrytis cinerea): H (H shows the control value more than 50%); control value, Test G (downy mildew on vine) (Plasmopara viticola): H (H shows the control value more than 50%); control value, Test E (brown rust on wheat) (Puccinia recondita): H (H shows the control value more than 50%); control value, Test D (powdery mildew on barley) [1]: H (H shows the control value more than 50%)
CCn1c(-c2c(F)cccc2Cl)c(-n2cc(Cl)cn2)cc(Br)c1=O [Compound 199]											control value, Test C (Alternaria sooty spot on cabbage) (Alternaia brassicicola): H (H shows the control value more than 50%); control value, Test B (gray mold on tomato) (Botrytis cinerea): L (L shows the control value of 50% or less); control value, Test G (downy mildew on vine) (Plasmopara viticola): L (L shows the control value of 50% or less); control value, Test E (brown rust on wheat) (Puccinia recondita): L (L shows the control value of 50% or less); control value, Test D (powdery mildew on barley) [1]: L (L shows the control value of 50% or less)
Cc1sccc1-c1cc(Cl)c(=O)n(C)c1-c1c(F)cccc1F [Compound 484]						H (H shows the control value more than 50%)	H (H shows the control value more than 50%)	L (L shows the control value of 50% or less)	H (H shows the control value more than 50%)	L (L shows the control value of 50% or less)	
Cc1cnn(-c2cc(Cl)c(=O)n(C)c2-c2ccc(F)cc2Cl)c1Cl [Compound 476]						H (H shows the control value more than 50%)	H (H shows the control value more than 50%)	H (H shows the control value more than 50%)	H (H shows the control value more than 50%)	H (H shows the control value more than 50%)	
O=c1c(Cl)cc(-c2cc(Br)sc2Cl)c(-c2c(F)cccc2F)n1CC(F)F [Compound 403]						H (H shows the control value more than 50%)	H (H shows the control value more than 50%)	L (L shows the control value of 50% or less)	L (L shows the control value of 50% or less)	L (L shows the control value of 50% or less)	
Cn1c(-c2c(F)cccc2F)c(-c2cccs2)ccc1=O [Compound 14]	L (L shows the control value of 50% or less)	H (H shows the control value more than 50%)	H (H shows the control value more than 50%)	H (H shows the control value more than 50%)	H (H shows the control value more than 50%)						
O=c1ccc(-n2cc(Cl)cn2)c(-c2ccccc2F)n1CC(F)F [Compound 276]											control value, Test C (Alternaria sooty spot on cabbage) (Alternaia brassicicola): H (H shows the control value more than 50%); control value, Test B (gray mold on tomato) (Botrytis cinerea): L (L shows the control value of 50% or less); control value, Test G (downy mildew on vine) (Plasmopara viticola): L (L shows the control value of 50% or less); control value, Test E (brown rust on wheat) (Puccinia recondita): L (L shows the control value of 50% or less); control value, Test D (powdery mildew on barley) [1]: H (H shows the control value more than 50%)
Cc1cc(Br)sc1-c1ccc(=O)n(CC(F)F)c1-c1c(F)cccc1F [Compound 443]						H (H shows the control value more than 50%)	H (H shows the control value more than 50%)	L (L shows the control value of 50% or less)	H (H shows the control value more than 50%)	H (H shows the control value more than 50%)	
CCn1c(-c2c(F)cccc2F)c(-c2ccsc2)ccc1=O [Compound 16]	H (H shows the control value more than 50%)	H (H shows the control value more than 50%)	L (L shows the control value of 50% or less)	H (H shows the control value more than 50%)	H (H shows the control value more than 50%)						
CCn1c(-c2c(F)cc(OC)cc2F)c(-c2oc(Br)nc2Br)cc(Br)c1=O [Compound 102]	H (H shows the control value more than 50%)	H (H shows the control value more than 50%)	H (H shows the control value more than 50%)	L (L shows the control value of 50% or less)	L (L shows the control value of 50% or less)						
CCn1c(-c2c(F)cccc2F)c(-c2ccsc2Br)cc(Br)c1=O [Compound 54]	H (H shows the control value more than 50%)	H (H shows the control value more than 50%)	L (L shows the control value of 50% or less)	H (H shows the control value more than 50%)	H (H shows the control value more than 50%)						
Cc1sccc1-c1cc(Cl)c(=O)n(CC(F)F)c1-c1c(F)cccc1F [Compound 480]						H (H shows the control value more than 50%)	L (L shows the control value of 50% or less)	L (L shows the control value of 50% or less)	L (L shows the control value of 50% or less)	L (L shows the control value of 50% or less)	
O=c1c(Br)cc(-c2cccnc2Cl)c(-c2c(F)cc(F)cc2F)n1CC(F)F [Compound 69]	H (H shows the control value more than 50%)	H (H shows the control value more than 50%)	L (L shows the control value of 50% or less)	H (H shows the control value more than 50%)	H (H shows the control value more than 50%)						
